The other results are listed elsewhere or left out.
Tested on: T1, C. trachomatis L2/434/Bu expressing GFP (CTL2-GFP)
T1 construct: L2/434/Bu GFP intracellular growth in HeLa cells
Set-up: species or system HeLa; C. trachomatis total inclusion area by high-content imaging, normalised to DMSO
Details: total inclusion area; 28.5 h, 10 µM; inhibitor
Procedure, shortened: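 After bulk GFP and resorufin fluorescence reads, cells were fixed, stained with Hoechst and imaged by high-content microscopy. Inclusion area and number (GFP) stood in for chlamydial growth, nuclei count (Hoechst) for host cell viability. MICs were derived as for the bulk readout.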

SMILES	% of control remaining
COc1ccc(CNC(=O)c2cnc(-c3ccc(F)cc3)c(-c3ccc(C(C)=O)s3)c2)cc1 [CBK036577]	91.2999
CC1CCN(S(=O)(=O)c2ccc3c(c2)oc(=O)c2cc(S(=O)(=O)N4CCC(C)CC4)ccc23)CC1 [CBK266314]	134.084
CC(=O)Nc1cccc(CN(C)C(CCO)c2ccccc2)c1 (centres unmarked) [CBK305127]	47.8137
CCCC(=O)c1ccc(S(=O)(=O)N2CCN(CCCOC3CCCCO3)CC2)cc1 (centres unmarked) [CBK062858]	76.2469
O=S(=O)(Nc1nc2c(s1)CCCC2)c1cc(Cl)ccc1Cl [CBK096578]	102.456
CC(=O)N(C)c1ncc(Br)cc1C(=O)NCc1ccc2c(c1)CCO2 [CBK076544]	104.2
Cc1ccc(Cl)c(OC(C)C(=O)NCC2(N3CCOCC3)CCSC2)c1 (centres unmarked) [CBK305681]	38.8562
CC12CCC(C(=O)O)(c3nc4cc([N+](=O)[O-])ccc4nc31)C2(C)C (centres unmarked) [CBK266577K]	90.9515
COc1ccc(CNc2ccc(C3c4ccsc4CCN3C(C)=O)cc2)cc1 (centres unmarked) [CBK286444]	106.157
COc1ccc(-c2noc(CSc3nnc(-c4cccs4)n3-c3ccccc3)n2)cc1 [CBK268390]	75.0907
Cc1ccsc1C(=O)N1CCC(n2cc(C(C)(C)O)nn2)CC1 [CBK307069]	89.4837
O=C(O)CSc1nc2ccc(NC(=O)COc3ccc(Cl)cc3)cc2s1 [CBK299773]	122.136
CSc1nc(C#N)c(N)c(SC2C=CCCC2)n1 (centres unmarked) [CBK021817]	85.2977
O=C(O)c1ccc(CNC(=S)Nc2ccc([N+](=O)[O-])cc2)cc1 [CBK267037]	103.406
COCCc1nsc(N2CCC(Oc3cccnc3N(C)C)C2)n1 (centres unmarked) [CBK305418]	51.7235
COc1ccc(-c2nc(NC(=O)c3ccccn3)cnc2-c2cccc(C(F)(F)F)c2)cc1 [CBK036785]	79.9569
Clc1cncc(N2CCCC2)n1 [CBK083595]	87.292
C[C@]12CN(C3CCSC3)C[C@H]1C(=O)Nc1ccccc1C(=O)N2 (some centres unmarked) [CBK284788]	105.716
CC(C)CNS(=O)(=O)c1ccc(N2CCCC2=O)cc1 [CBK304981]	41.7957
Oc1ccc2ccccc2c1/C=N/c1ccc(-c2cc(-c3ccc(/N=C/c4c(O)ccc5ccccc45)cc3)ncn2)cc1 [CBK261621]	84.6114
CCN(CCN(C)C)Cc1ccc(F)cc1F [CBK261877]	98.2976
Cn1c(=O)c2c(O)cc(=O)n(Cc3ccccc3)c2n(C)c1=O [CBK291245]	111.949
CC(c1ccncc1)N1Cc2cccc(C(=O)O)c2C1=O (centres unmarked) [CBK291137]	89.6543
CC(=O)N1CCn2nc(C(=O)N(CCO)Cc3ccccc3)cc2C1 [CBK306769]	74.5638
COC(=O)Cn1c(=O)sc2cccc(Cl)c21 [CBK026076]	44.8093

SMILES	% of control remaining
Cc1ccccc1Nc1nc(N)nc(CN2CCOC3CCCC32)n1 (centres unmarked) [CBK305181]	10.3873
O=[N+]([O-])c1ccc(CN2CCN(c3nccnc3Oc3ccc(F)cc3)CC2)cc1 [CBK083015T]	96.5814
COc1ccccc1NC(=O)CCSc1nc(C)cc(C)n1 [CBK266371]	93.7177
COc1ccc(S(=O)(=O)NCCN2CCOCC2)c(Cl)c1Cl [CBK269999]	84.7815
CN(C)c1ccc(-c2nnnn2[C@H]2CO[C@H]3[C@@H]2OC[C@H]3O)cc1 [CBK289481]	78.4791
CC(=O)N1CCC[C@@H]1C(=O)N1CC[C@@H]2NC(=O)[C@H](Cc3ccccc3)NC(=O)C3(C/C=C/C[C@@H]2C1)CCOCC3 [CBK292195]	84.4588
COc1ccc(CCNC(=O)NS(=O)(=O)c2ccc(C)cc2)cc1OC [CBK300510]	46.7579
FC(F)(F)c1cccc(OCCN2CCNCC2)n1 [CBK113291]	104.362
OC1(CCCN2CCOCC2)C2CCCC1CN(Cc1ccccc1)C2 (centres unmarked) [CBK025076C]	31.5966
COc1cccc(OCCCCCc2c(C)n[nH]c2C)c1 [CBK261805]	89.1559
O=C(c1ccccc1-c1ccccc1)N1CCn2cnnc2C1 [CBK283789]	110.515
COc1ccccc1CNCCNC(=O)OC(C)(C)C [CBK056694]	79.6311
CCC(C)c1ccc(NC(=S)NCCn2cc(Cl)cn2)cc1 (centres unmarked) [CBK267101]	85.5575
CCN1CCN(c2c(Cl)cccc2NC(=O)c2ccc(N3CCOCC3)c([N+](=O)[O-])c2)CC1 [CBK269066]	108.956
CCCC(=O)N[C@@H](C)Cn1c(C(F)(F)F)cc2cccnc21 [CBK283232]	70.64
C/C(Nc1ccc(S(=O)(=O)Nc2nccc(C)n2)cc1)=C1\C(=O)N(c2nc3ccccc3s2)N=C1C(F)(F)F [CBK263002]	24.472
CC[C@H]1CN(C(=O)NC(C)C)CC[C@H]1CC(=O)Nc1nccs1 [CBK288774]	93.2483
COc1ccc(C)cc1-n1ccc(C(=O)NC(C)(C)C(N)=O)n1 [CBK305789]	37.8308
CCCC(=O)c1ccc(S(=O)(=O)N2CCCN(Cc3ccc(F)cc3Cl)CC2)cc1 [CBK062917]	55.8095
Clc1ccc(-c2csc3ncnc(SCc4ccco4)c23)cc1 [CBK265972]	81.934
Oc1ccc2cc(-c3cccc(C(F)(F)F)c3)cnc2n1 [CBK081285]	25.8188
COc1cccc(Nc2c(C(=O)N3CCCCC3)cnc3nc(C)ccc23)c1 [CBK287817]	114.644
CCOC(=O)c1csc(C2CCCN2C(=O)c2ccoc2C)n1 (centres unmarked) [CBK304080]	68.7957
Clc1cccc(-c2cncc(NCc3ccc4c(c3)OCO4)n2)c1 [CBK065323]	64.2379
O=C(NCCN1CCOCC1)C1CC2CCC1C2 (centres unmarked) [CBK026764]	106.579

Source: paper PMC12040169 (PLOS Biology, 2025)
